# The supplement of paper PMC12217912
# This is one part of the list. Sequences were assembled here from the parent chain. Values near 0.05 are background.
# B1: TEV protease; numbered along this chain (parent)
# chain: MGESLFKGPRDYNPISSSICHLTNESDGHTTSLYGIGFGPFIITNKHLFRRNNGTLVVQSLHGVFKVKDTTTLQQHLVDGRDMIIIRMPKDFPPFPQKLKFREPQREERICLVTTNFQTKSMSSMVSDTSCTFPSGDGIFWKHWIQTKDGQCGSPLVSTRDGFIVGIHSASNFTNTNNYFTSVPKNFMELLTNQEAQQWVSGWRLNADSVLWGGHKVFMVKPEEPFQPVKEATQL
# Variants of: B1
# Assay: raw area under fraction-flipped curve 0-4 h after induction (AUC4h, not background-subtracted), DNA-recorder readout of cleavage of the substrate (dimensionless); higher = more cleavage of the substrate by the protease variant
# Conditions: temperature: 34 °C; time window: 0-4 h after rhamnose induction
# Description: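 In vivo DNA recorder in E. coli TOP10(DE3) ΔrhaA at 34 °C. Each TEVp single-site mutant (parent TEVp 0) is paired with a single-site variant of the 7-mer TEVs (canonical ENLYFQ|S). The substrate sits between flexible linkers in a Bxb1-sfGFP-TEVs-SsrA fusion, so cleavage stabilises Bxb1 and speeds flipping of a recombination array, read by NGS. The value is the raw area under the fraction-flipped curve over 0-4 h after rhamnose induction (AUC4h), with ≥20 reads per time point. It is not background-subtracted; inactive controls average about 0.047.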
# 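Also: Bxb1 expression induced with 0.2% (w/v) L-rhamnose at OD600 near 0.5, cultures sampled hourly, flipped fraction per protease–substrate barcode pair counted by paired-end Illumina sequencing.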
Variant,area with substrate ENLYAQS,area with substrate ENLYCQS,area with substrate ENLYDQS,area with substrate ENLYEQS,area with substrate ENLYHQS,area with substrate ENLYIQS,area with substrate ENLYKQS,area with substrate ENLYMQS,area with substrate ENLYNQS,area with substrate ENLYPQS,area with substrate ENLYSQS,area with substrate ENLYTQS,area with substrate ENLYVQS,area with substrate ENLYWQS,area with substrate ENLYYQS,area with substrate ENLYGQS,area with substrate ENLYQQS,area with substrate ENLYRQS,area with substrate ENLYLQS
P14Q,0.0952,0.106,0.0288,0.121,0.0682,0.114,0.0674,0.0854,0.0693,0.0649,0.0798,0.0757,0.115,0.0993,0.0688,,,,
P14V,0.0731,0.078,0.0669,0.0953,0.0634,0.105,0.0577,0.0754,0.0743,0.0747,0.0853,,0.0991,0.058,0.0743,0.0589,0.0687,0.0621,
F6R,0.0661,,0.0758,0.0945,0.0701,0.113,,0.0472,,0.0669,,,,0.09,,0.0367,0.0862,0.0653,
G63K,0.0605,,,0.0506,0.0666,,,,0.0666,0.0656,,,0.104,,,0.0617,,0.0634,
G63V,0.0619,0.085,0.0551,0.0608,0.0653,0.0973,0.0577,,0.0598,0.0679,0.0652,0.0709,0.0987,0.0559,0.0508,0.0654,0.0695,0.0697,0.0646
P9H,0.111,,0.0639,0.0685,0.095,0.128,0.134,,0.0628,,0.0813,,0.14,0.0923,0.0639,0.081,,0.0684,
T44V,0.0591,,0.0645,0.0525,0.059,0.0728,,0.0659,0.0485,0.0939,0.0695,0.0829,0.0736,0.073,,,0.0516,0.0457,0.0595
M83Q,0.084,0.061,0.0776,0.0588,0.0387,0.0788,0.0613,0.0643,0.0595,,0.0446,,0.019,0.0566,,0.0532,,0.0565,
M83P,0.0389,,0.0537,0.0545,,,,,0.0427,0.0462,0.027,,0.0657,,,0.0666,0.0594,,
M83S,0.0636,,,0.0403,0.0598,,,0.068,0.0564,,,,0.0742,,0.0478,0.0304,,0.0556,
S26M,0.0687,0.073,0.0656,0.0601,0.0585,,0.0263,0.0861,0.0563,0.0676,0.0455,,0.0545,0.0604,0.0502,0.058,0.0702,0.0545,0.06
I42E,0.0427,0.0415,0.0447,0.0472,,,0.042,0.0429,0.0437,0.0554,,0.0436,,0.0623,,0.0361,0.0371,0.025,
I42P,0.0654,0.0635,0.0354,0.0499,0.0467,0.0478,0.0294,,0.0423,0.0402,0.043,0.0445,0.0564,0.0503,,0.0379,0.0428,,
